Results are given in words; binding and its absence hold for the method and conditions named. In cells and extracts the contact can be indirect. Some entries that bind do so weakly or less than the wild type. For some of these results: Sequences can lack the tags named with a protein.
B1: GFP-tagged ZDHHC4 (enzyme, UniProt Q9D6H5 1-343)
chain: MDFLVLFLFYLAFLLICVVLICIFTKSQRLKAVVLGGAQVCSRVIPQCLQRAVQTLLHQLFHTRHPTFIVLHLLLQGLVYAEYTCEVFGYCRELEFSLPYLLLPYVLLSVNLVFFTLTCAANPGTITKANESFLLQVYKFDDVMFPKNSRCPTCDLRKPARSKHCRLCDRCVHRFDHHCVWVNNCIGAWNTRYFLIYLLTLTASAATIATVTAAFLLRLVTVSDLYQETYLDDVGHFQAVDTVFLIQHLFLAFPRIVFLLGFVIVLSMLLAGYLCFALYLAATNQTTNEWYKGDWAWCQRWPLVAWSPSAEPRIHQNIHSHGFRSNLREIFLPATPSYKKKEK
B2: NsfGFP-tagged ZDHHC4 (enzyme, UniProt Q9D6H5 1-343)
chain: B1 chain
B3: ZDHHC4 (endogenous, mouse DRG neurons) (enzyme, UniProt Q9D6H5 1-343)
chain: B1 chain
B4: GFP-tagged ZDHHC12 (enzyme, UniProt Q8VC90 1-267)
chain: MALWPPLNSGMLVRTGHTVLTWGITLVLFLHDTELRQWEEQGELLLPLTFLLLVLSSLLLYLAVSLMDPGYVTTQPQPQGEPKEEQAAMVPQAVPLRRCRHCLVLQPLRARHCRDCRRCVRRYDHHCPWMENCVGERNHPLFVAYLALQLVVLLWGLCLAWSGLQFFQPWGLWLRSTGLLFTTFLLLSFFALVVALLLASHLYLVARNTTTWEFISSHRIAYLRQRTSNPFDRGPTRNLAHFFCGWPSGPWETLSAEEEEEGSSQVV
B5: GFP-tagged ZDHHC15 (enzyme, UniProt Q8BGJ0 1-337)
chain: MRRGWKMALSGGLRCCRRVLSWVPVLVIVLVVLWSYYAYVFELCLVTVLSPAEKVIYLILYHAIFVFFAWTYWKSIFTLPQQPNQKFHLSYTDKERYKNEERPEVQKQMLVDMAKKLPVYTRTGSGAVRFCDRCHLIKPDRCHHCSVCAMCVLKMDHHCPWVNNCIGFSNYKFFLQFLAYSVLYCLYIATTVFSYFIKYWRGELPSVRSKFHVLFLLFVACMFFVSLVILFGYHCWLVSRNKTTLEAFCTPVFTSGPEKNGFNLGFIKNIQQVFGDNKKFWLIPIGSSPGDGHSFPMRSMNESQNPLLANEEPWEDNEDDSRDYPEGSSSLAVESET
B6: GFP-tagged ZDHHC18 (enzyme, UniProt Q5Y5T2 1-380)
chain: MKDCEYQQISPGAAPPPASPGARRPGPAAPPAPSPGPAPGAPRWSGSGSGSGSLGRRPRRKWEVFPGRNRFYCGGRLMLAGHGGVFALTLLLILSTTILFFVFDCPYLARTLTLAIPIIAAILFFFVMSCLLQTSFTDPGILPRATICEAAALEKQIDNTGSSTYRPPPRTREVMINGQTVKLKYCFTCKMFRPPRTSHCSVCDNCVERFDHHCPWVGNCVGRRNYRFFYAFILSLSFLTAFIFACVVTHLTLLSQGSNFLSALKKTPASVLELVICFFSIWSILGLSGFHTYLVASNLTTNEDIKGSWSSKRGGEASVNPYSHKSIITNCCAVLCGPLPPSLIDRRGFVQSDTALPSPIRSDDPACGAKPDASMVGGHP

Chains of the proteins cited; added tags and fusions are not shown. Lines headed by an entry give the natural chain unless they say otherwise; changes in a name come on top. A line that says so, or that is headed by a name, gives the form on record, which may keep a tag or linker. Residues count along the entry.
UniProt O35433: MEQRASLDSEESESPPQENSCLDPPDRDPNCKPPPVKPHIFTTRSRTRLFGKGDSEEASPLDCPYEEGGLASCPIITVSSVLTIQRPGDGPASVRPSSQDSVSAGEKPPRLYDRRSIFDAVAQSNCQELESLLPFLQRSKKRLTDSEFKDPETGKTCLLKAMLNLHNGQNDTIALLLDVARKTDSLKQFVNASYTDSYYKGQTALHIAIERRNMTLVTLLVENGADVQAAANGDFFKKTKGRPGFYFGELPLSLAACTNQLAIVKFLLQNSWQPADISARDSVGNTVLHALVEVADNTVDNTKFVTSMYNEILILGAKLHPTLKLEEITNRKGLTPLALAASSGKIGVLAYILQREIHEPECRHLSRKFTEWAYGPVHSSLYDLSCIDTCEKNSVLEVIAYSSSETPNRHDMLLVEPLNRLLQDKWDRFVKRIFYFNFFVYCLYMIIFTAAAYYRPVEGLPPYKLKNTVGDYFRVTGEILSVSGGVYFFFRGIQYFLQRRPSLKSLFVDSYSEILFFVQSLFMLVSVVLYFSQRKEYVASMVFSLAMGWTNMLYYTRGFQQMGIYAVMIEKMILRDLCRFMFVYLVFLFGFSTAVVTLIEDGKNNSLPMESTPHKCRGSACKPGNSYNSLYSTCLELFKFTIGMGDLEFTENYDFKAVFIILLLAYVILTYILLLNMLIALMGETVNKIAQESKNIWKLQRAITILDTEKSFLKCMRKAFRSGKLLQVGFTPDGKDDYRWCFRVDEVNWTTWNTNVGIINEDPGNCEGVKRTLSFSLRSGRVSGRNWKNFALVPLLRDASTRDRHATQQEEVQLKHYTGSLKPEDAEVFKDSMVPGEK
Flag-tagged TRPV1 N-terminus (aa 1-432): residues 1-432 of O35433
Flag-tagged TRPV1 C-terminus (aa 687-839): residues 687-838 of O35433
UniProt Q704Y3: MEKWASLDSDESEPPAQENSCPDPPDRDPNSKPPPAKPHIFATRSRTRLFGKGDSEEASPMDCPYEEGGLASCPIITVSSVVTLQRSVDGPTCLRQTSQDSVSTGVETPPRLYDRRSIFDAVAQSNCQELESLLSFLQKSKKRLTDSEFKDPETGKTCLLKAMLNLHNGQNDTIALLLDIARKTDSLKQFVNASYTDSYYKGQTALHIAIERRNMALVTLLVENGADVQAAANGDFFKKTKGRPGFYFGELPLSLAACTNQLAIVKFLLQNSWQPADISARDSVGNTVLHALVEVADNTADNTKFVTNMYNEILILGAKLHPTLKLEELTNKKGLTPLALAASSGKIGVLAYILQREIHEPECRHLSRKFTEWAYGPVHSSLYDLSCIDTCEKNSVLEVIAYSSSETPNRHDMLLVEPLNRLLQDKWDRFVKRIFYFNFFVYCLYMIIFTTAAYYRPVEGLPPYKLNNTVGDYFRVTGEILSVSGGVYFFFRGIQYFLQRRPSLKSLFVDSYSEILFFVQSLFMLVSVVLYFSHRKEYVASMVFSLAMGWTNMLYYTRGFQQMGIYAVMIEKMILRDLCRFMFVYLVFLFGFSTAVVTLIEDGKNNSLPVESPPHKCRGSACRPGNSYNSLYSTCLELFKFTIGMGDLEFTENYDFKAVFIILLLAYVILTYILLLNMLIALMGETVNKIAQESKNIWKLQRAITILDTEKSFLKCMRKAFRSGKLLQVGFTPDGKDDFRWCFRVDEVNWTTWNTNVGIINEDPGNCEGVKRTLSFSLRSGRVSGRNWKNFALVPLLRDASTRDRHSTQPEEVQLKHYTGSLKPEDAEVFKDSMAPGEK
UniProt Q80TN5: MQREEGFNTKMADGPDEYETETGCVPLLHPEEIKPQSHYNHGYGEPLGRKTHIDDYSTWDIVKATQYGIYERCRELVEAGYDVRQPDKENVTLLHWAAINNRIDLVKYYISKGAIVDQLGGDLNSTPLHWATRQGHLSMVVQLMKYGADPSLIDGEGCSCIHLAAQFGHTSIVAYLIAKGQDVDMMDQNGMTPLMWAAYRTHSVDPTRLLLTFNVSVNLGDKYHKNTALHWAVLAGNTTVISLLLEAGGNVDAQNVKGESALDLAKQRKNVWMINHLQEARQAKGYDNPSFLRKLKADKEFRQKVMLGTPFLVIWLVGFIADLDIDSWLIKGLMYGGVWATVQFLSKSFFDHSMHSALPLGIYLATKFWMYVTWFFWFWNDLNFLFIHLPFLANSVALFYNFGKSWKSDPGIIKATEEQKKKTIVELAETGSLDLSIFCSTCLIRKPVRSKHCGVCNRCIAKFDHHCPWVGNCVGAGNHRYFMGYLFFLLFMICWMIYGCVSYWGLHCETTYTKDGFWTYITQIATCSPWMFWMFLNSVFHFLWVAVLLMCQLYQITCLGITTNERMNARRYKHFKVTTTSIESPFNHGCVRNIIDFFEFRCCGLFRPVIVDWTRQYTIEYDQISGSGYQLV
UniProt P59267: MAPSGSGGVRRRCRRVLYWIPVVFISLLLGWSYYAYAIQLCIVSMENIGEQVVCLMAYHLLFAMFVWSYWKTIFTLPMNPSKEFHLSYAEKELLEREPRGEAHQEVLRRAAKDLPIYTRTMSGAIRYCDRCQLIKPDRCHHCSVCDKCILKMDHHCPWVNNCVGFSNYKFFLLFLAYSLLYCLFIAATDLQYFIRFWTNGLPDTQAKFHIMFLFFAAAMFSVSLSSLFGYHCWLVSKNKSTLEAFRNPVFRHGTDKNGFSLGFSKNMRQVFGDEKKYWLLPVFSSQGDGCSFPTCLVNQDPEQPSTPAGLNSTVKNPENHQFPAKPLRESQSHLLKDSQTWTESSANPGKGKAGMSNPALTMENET

Legend:
[1] = target: FLAG-tagged TRPV1 (full length) (Rattus norvegicus) (UniProt O35433); experiment: co-IP; HEK293T cells co-transfected with FLAG-tagged TRPV1 (or truncates) and GFP-tagged ZDHHCs; immunoprecipitation with anti-Flag antibody; NP-40 lysis buffer, washes with 500 mM NaCl; immunoblotting
[2] = target: Flag-tagged TRPV1 C-terminus (aa 687-839) (Rattus norvegicus) (UniProt O35433); experiment: as above
[3] = target: Flag-tagged TRPV1 N-terminus (aa 1-432) (Rattus norvegicus) (UniProt O35433); experiment: as above
[4] = target: CsfGFP-tagged TRPV1 (Rattus norvegicus) (UniProt O35433); experiment: split reporter; BiFC with split GFP fragments (CsfGFP, NsfGFP) in HEK293T cells, fixed, confocal imaging
[5] = target: TRPV1 (endogenous, mouse DRG neurons) (mouse (endogenous in DRG neurons)) (UniProt Q704Y3); experiment: co-IP; native mouse DRG lysate (NP-40 lysis buffer); pulled down with anti-TRPV1 antibody, IgG as negative control; blotted with anti-TRPV1 and anti-ZDHHC4

Molecule	binding [1]	also measured
GFP-tagged ZDHHC17 (from UniProt Q80TN5 1-632) (enzyme)	no binding	
GFP-tagged ZDHHC2 (from UniProt P59267 1-366) (enzyme)	no binding	
B1	binds	binding [2]: binds; binding [3]: binds
B2		binding [4]: binds
B3		binding [5]: binds
B4	no binding	
B5	no binding	
B6	no binding	
